Results taken from PubChem BioAssay AID1030 (National Center for Advancing Translational Sciences (NCATS), 2008).
Among all 220,000 compounds or so, about 16,000 (7.3%) were called active. The shares of active, inactive and inconclusive entries below differ from those in the screen. Calls follow the shape of the dose curve; as a rule, active = well fitted inhibition curve with a large enough effect (not every such curve was filed as active); inconclusive = small, poorly fitted or top-dose-only effect, or another doubt; inactive = no such curve, though single readings can be large or run the other way. Potencies of inconclusive entries are left out as doubtful fits.

biological target: Aldehyde dehydrogenase 1A1 (Homo sapiens) (UniProt P00352); experiment: qHTS Assay for Inhibitors of Aldehyde Dehydrogenase 1 (ALDH1A1); details: Purified ALDH1A1, NADH fluorescence, propionaldehyde substrate; series mostly up to 75.3 µM; activity, negative = inhibition: at the top concentration;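 as to activity, negative = inhibition: plate controls were no enzyme wells and a reference inhibitor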
Chain of UniProt P00352 (P00352 whole entry, looked up): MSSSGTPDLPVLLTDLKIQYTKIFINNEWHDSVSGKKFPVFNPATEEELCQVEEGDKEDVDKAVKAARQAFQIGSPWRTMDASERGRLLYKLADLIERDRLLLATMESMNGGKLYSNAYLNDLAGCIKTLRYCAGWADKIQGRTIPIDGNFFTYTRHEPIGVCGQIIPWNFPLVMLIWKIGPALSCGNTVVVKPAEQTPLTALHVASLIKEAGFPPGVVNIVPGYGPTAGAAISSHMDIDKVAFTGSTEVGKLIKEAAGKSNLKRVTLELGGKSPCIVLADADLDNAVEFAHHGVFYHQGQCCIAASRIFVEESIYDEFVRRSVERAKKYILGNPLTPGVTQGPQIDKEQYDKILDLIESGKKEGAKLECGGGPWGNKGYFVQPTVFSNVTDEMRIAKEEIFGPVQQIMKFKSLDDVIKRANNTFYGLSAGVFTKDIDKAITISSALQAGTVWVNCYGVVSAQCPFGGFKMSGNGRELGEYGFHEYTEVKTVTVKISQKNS
Potency is read from the fitted curve at half-maximal effect; tags tell the direction and shape of the fitted curve.

With `CCOc1ccc(S(=O)(=O)N2CCN(C(=S)NC3CC3)CC2)cc1` as the compound, how does the Potency read?
The Potency was inconclusive [inhibitor, single point].

How did the Potency turn out when `O=c1c(N2CCOCC2)coc2ccccc12` was run?
The Potency was inconclusive [inhibitor, partial curve].

With `O=C(CCN1C(=O)C2CCCCC2C1=O)Nc1nc(-c2ccc(F)c(F)c2)cs1` (centres undefined) as the compound, how does the Potency read?
The Potency was inconclusive [inhibitor, single point].

For `Nc1c(NCc2ccccc2)c2ccccc2oc1=O`, which Potency is on record?
Its Potency is active: 22.4 µM.

How did the “activity, negative = inhibition” value turn out when `CCCn1c(SCC(=O)c2cc(C)c(C)cc2C)n[nH]c1=O` was run?
Its value is inactive: 0.0796%.

Which “activity, negative = inhibition” value does the source give for `COc1cc(NC(=O)c2nccnc2C(=O)O)cc(OC)c1` here?
Its value is inactive: -10.3%.

`Cc1cccc(N2CCN(C(=O)CSCc3c(C)noc3C)CC2)c1C` was tested. Which “activity, negative = inhibition” value did it give?
Its value is inactive: -3.87%.

How did the Potency turn out when `CC(C)(C)C(=O)Nc1ccc(-c2nc3ccccc3c(=O)o2)cc1` was run?
The Potency was inconclusive [inhibitor, single point].

With `Cc1c(NC(=O)CSc2ccc(Cl)cc2)cccc1-c1nc2cc(Cl)ccc2o1` as the compound, how does the “activity, negative = inhibition” value read?
Its value is inactive: 19.9%.

For `Cc1ccc(-n2nc3c(c2NC(=O)c2ccc4c(c2)OCO4)CSC3)c(C)c1`, which Potency is on record?
The Potency was inconclusive [inhibitor, single point].

`O=C(c1ccco1)N1CCN(c2ncnc3scc(-c4ccc(F)cc4)c23)CC1` was tested. Which Potency did it give?
Its Potency is inconclusive [inhibitor, single point].

For `O=C(CNC(=O)c1cccc(F)c1)N/N=C/c1cccc([N+](=O)[O-])c1`, which Potency is on record?
The Potency was inconclusive [inhibitor, partial curve].

Which Potency does the source give for `CCC(c1nnnn1Cc1ccco1)N(Cc1cc2cc(OC)ccc2[nH]c1=O)C1CCCCC1` (centres undefined) here?
Its Potency is inconclusive [inhibitor, partial curve].

Which “activity, negative = inhibition” value does the source give for `Nc1nnc(SCC(=O)OCC(=O)Nc2ccccc2)s1` here?
Its value is inactive: 1.37%.

`CC(=O)c1cc(-c2ccccc2)n(CCC(=O)NC2CCCCCC2)c1C` was tested. Which Potency did it give?
The Potency was inconclusive [inhibitor, full curve].

Which Potency does the source give for `COc1ccccc1CNCC(=O)Nc1cc(S(=O)(=O)N2CCCCCC2)ccc1Cl` here?
The Potency was inconclusive [inhibitor, single point].

How did the “activity, negative = inhibition” value turn out when `CC(Cc1ccccn1)NC(=O)CCc1nnc(C2CCCCC2)o1` (centres undefined) was run?
The value was inactive: 0.956%.

How did the Potency turn out when `Cc1ccc(C2=NNC(C(O)C(O)C(O)CO)S2)cc1` (centres undefined) was run?
Its Potency is inconclusive [inhibitor, single point].

How did the Potency turn out when `Cc1ccc(Cl)cc1Nc1nc(-c2sc(NC(=O)C(C)(C)C)nc2C)cs1` was run?
The Potency was inconclusive [inhibitor, single point].

Which Potency does the source give for `CCOc1ccc2[nH]c3c(N4CCC5(CC4)OCCO5)ncnc3c2c1` here?
Its Potency is inconclusive [inhibitor, partial curve].

`C=CCNC(=S)N/N=C/c1ccc(N(CC)Cc2ccccc2)cc1` was tested. Which Potency did it give?
Its Potency is inconclusive [inhibitor, single point].

How did the Potency turn out when `O=C(C1CC1(c1ccccc1)c1ccccc1)N1CCOCC1` (centres undefined) was run?
The Potency was inconclusive [inhibitor, single point].

Which Potency does the source give for `Cc1ccc(CNc2ccc3c(c2)ncn3C)cc1` here?
The Potency was inconclusive [inhibitor, single point].

For `CCCCC(=O)NC(=S)Nc1cc([N+](=O)[O-])ccc1OC`, which Potency is on record?
Its Potency is inconclusive [inhibitor, single point].

`CCOc1ccc(C(=O)NCC2CCCO2)cc1OCC` (centres undefined) was tested. Which Potency did it give?
The Potency was inconclusive [inhibitor, partial curve, poor fit].

For `COc1ccc(C(=O)NCc2nnc(SCC(=O)Nc3ccccc3F)o2)cc1`, which Potency is on record?
Its Potency is inconclusive [inhibitor, single point].

For `CCCc1ccc(-c2ccc(/C=C/C(=O)O)cc2)nc1`, which Potency is on record?
The Potency was inconclusive [inhibitor, single point].

`N/C(=N\N=C\c1ccc2c(c1)OCO2)SC1CC(=O)N(c2ccc(C(=O)O)cc2)C1=O` (centres undefined) was tested. Which Potency did it give?
The Potency was inconclusive [inhibitor, single point].

For `Cc1cccc(NC(=S)NC(=O)CCc2ccccc2)c1C`, which Potency is on record?
The Potency was active: 12.6 µM.

For `COc1ccc(Cl)cc1S(=O)(=O)N1CCCC1`, which Potency is on record?
Its Potency is inconclusive [inhibitor, single point].

With `COc1ccc(/C=C/C(=O)c2cc(F)ccc2OC(=O)c2ccc(OC)c(OC)c2)cc1OC` as the compound, how does the Potency read?
Its Potency is inconclusive [inhibitor, single point].

How did the “activity, negative = inhibition” value turn out when `COC(=O)CN1C(=O)C(O)=C(C(C)=O)C1c1ccc([N+](=O)[O-])cc1` (centres undefined) was run?
The value was inactive: 3.05%.

How did the “activity, negative = inhibition” value turn out when `COc1c2c(nc3occc13)C(CC=C(C)C)(OC)C(OC(C)=O)CC2` (centres undefined) was run?
Its value is inactive: -11.3%.

For `Cc1ccc(S(=O)(=O)N2CCN(c3nc(C)c4c(c3C#N)CC(C)(C)OC4)CC2)cc1`, which Potency is on record?
Its Potency is inconclusive [inhibitor, partial curve].

Which Potency does the source give for `Cc1cnc(CNc2nc(-c3ccoc3)nc3ccccc23)cn1` here?
The Potency was inconclusive [inhibitor, single point].

How did the Potency turn out when `Cc1cccc(C(=O)N2CCC(n3nnc4cc(F)ccc43)CC2)c1` was run?
Its Potency is inconclusive [inhibitor, single point].

Which Potency does the source give for `N#CC1(C#N)C(c2ccccc2)OC23CCCCCC2C1(C#N)C(=N)O3` (centres undefined) here?
The Potency was inconclusive [inhibitor, partial curve].

With `COc1ccc(-c2cc(C(=O)N3CCCc4ccccc43)no2)cc1` as the compound, how does the Potency read?
Its Potency is active: 3.98 µM.

With `COc1ccc2[nH]cc(CCn3ccc(O)c(C/C=C/c4ccccc4)c3=O)c2c1` as the compound, how does the Potency read?
The Potency was active: 14.1 µM.

How did the Potency turn out when `CS(=O)(=O)N1CCN=C1SCc1ccc([N+](=O)[O-])cc1` was run?
The Potency was inconclusive [inhibitor, single point].

`COc1cc2c(cc1NC(=O)C(C)Sc1ccc(C)cc1)oc1ccccc12` (centres undefined) was tested. Which Potency did it give?
The Potency was inconclusive [inhibitor, single point].

`CCOc1ccc(NS(=O)(=O)c2cc(OCC(N)=O)c(C)cc2Cl)cc1` was tested. Which Potency did it give?
The Potency was inconclusive [inhibitor, single point].

With `COc1ccc(-c2nn(CC(=O)Nc3ccc(Cl)c(Cl)c3)c(=O)c3ccccc23)cc1` as the compound, how does the Potency read?
Its Potency is inconclusive [inhibitor, partial curve].

How did the Potency turn out when `CCc1c(C(C)S(=O)(=O)c2ccccc2)[nH]c(=O)n1CC` (centres undefined) was run?
Its Potency is inconclusive [inhibitor, single point].
